Source: the supplement of paper PMC10037445
Where “and” joins values, the source holds several entries; their conditions need not be identical. Identical values can stand only once. Whole data set: some 2,900 compounds, median “IRF Lucia reporter activity, fold change vs agonist alone” near 0.9, cut for the highest 2% near 2.8. The list shows a part of the results.

Columns and labels:
RAW-Dual [1] = assay: IRF Lucia reporter activity, fold change vs agonist alone; cytotoxicity flag (confluency mask): cytotoxic (confluency <70% of control); higher = enhanced IRF activity
How it was run: (§1)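 Reporter activity is given as fold change relative to agonist-alone wells. To measure it, 50 nL of library stock was pin-tooled onto RAW-Dual macrophages (50,000 cells/well, DMEM, 384-well plates), a PRR agonist followed 1 h later, and cells stayed at 37 °C, 5% CO2. Twenty hours on, supernatant was assayed for IRF (QuantiLuc luminescence) and NF-κB (QuantiBlue, 620 nm absorbance), and wells under 70% of agonist-control IncuCyte confluency in both mask sets were marked cytotoxic.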

RAW-Dual [2] = assay: IRF Lucia reporter activity, fold change vs agonist alone; higher = enhanced IRF activity; settings: agonist: MPLA (TLR4) […]
How it was run: as §1

RAW-Dual [3] = assay: IRF Lucia reporter activity, fold change vs agonist alone; cytotoxicity flag (confluency mask): not cytotoxic; higher = enhanced IRF activity
How it was run: as §1

[4] = agonist: 3'3'-cGAMP (STING) 10 ug/mL
[5] = library stock concentration (final ~1000-fold dilution): 10 mM, cytotoxicity flag (confluency mask): cytotoxic (confluency <70% of control)
[6] = library stock concentration (final ~1000-fold dilution): 10 mM, cytotoxicity flag (confluency mask): not cytotoxic
[7] = library stock concentration (final ~1000-fold dilution): 10 mM water, cytotoxicity flag (confluency mask): not cytotoxic

O=C1Nc2cc(Br)ccc2/C1=C1/Nc2ccccc2/C1=N\O (library stock concentration (final ~1000-fold dilution): 10 mM)
IRF Lucia reporter activity (RAW-Dual [1]; [4]): 0.0195
IRF Lucia reporter activity (RAW-Dual [1]; agonist: LPS (TLR4) 0.1 ug/mL): 0.0144

O=C1Nc2cc(Br)ccc2/C1=C1/Nc2ccccc2/C1=N\O
IRF Lucia reporter activity (RAW-Dual [2]; [5]): 0.0228

Cn1cc(C2=C(c3ccc(Cl)cc3Cl)C(=O)NC2=O)c2ccccc21
IRF Lucia reporter activity (RAW-Dual [2]; [6]): 0.641

Cn1cc(C2=C(c3ccc(Cl)cc3Cl)C(=O)NC2=O)c2ccccc21 (library stock concentration (final ~1000-fold dilution): 10 mM)
IRF Lucia reporter activity (RAW-Dual [3]; [4]): 0.971
IRF Lucia reporter activity (RAW-Dual [3]; agonist: LPS (TLR4) 0.1 ug/mL): 0.887

Cc1ccc(-c2n[nH]c3c2C(c2cccc(O)c2)N(c2ccc(C(=O)O)cc2)C3=O)cc1 (stereo unspecified) (library stock concentration (final ~1000-fold dilution): 10 mM)
IRF Lucia reporter activity (RAW-Dual [3]; [4]): 0.964
IRF Lucia reporter activity (RAW-Dual [3]; agonist: LPS (TLR4) 0.1 ug/mL): 0.947

Cc1nn(CC(F)(F)F)cc1Nc1ncc(Br)c(NCc2ccc(S(N)(=O)=O)cc2)n1 (library stock concentration (final ~1000-fold dilution): 10 mM)
IRF Lucia reporter activity (RAW-Dual [3]; [4]): 0.0135
IRF Lucia reporter activity (RAW-Dual [3]; agonist: LPS (TLR4) 0.1 ug/mL): 0.0166

Cc1nc(Nc2ncc(C(=O)Nc3c(C)cccc3Cl)s2)cc(N2CCN(CCO)CC2)n1.O (library stock concentration (final ~1000-fold dilution): 10 mM)
IRF Lucia reporter activity (RAW-Dual [3]; [4]): 0.0381
IRF Lucia reporter activity (RAW-Dual [3]; agonist: LPS (TLR4) 0.1 ug/mL): 0.852

Cc1ccc(C(=O)O)c(O)c1
IRF Lucia reporter activity (RAW-Dual [2]; [6]): 1.02

Cc1ccc(C(=O)O)c(O)c1 (library stock concentration (final ~1000-fold dilution): 10 mM)
IRF Lucia reporter activity (RAW-Dual [3]; [4]): 0.982
IRF Lucia reporter activity (RAW-Dual [3]; agonist: LPS (TLR4) 0.1 ug/mL): 1.43

CCOC(=O)NCCCC(=O)NCCc1ccccc1 (library stock concentration (final ~1000-fold dilution): 10 mM)
IRF Lucia reporter activity (RAW-Dual [3]; [4]): 0.764
IRF Lucia reporter activity (RAW-Dual [3]; agonist: LPS (TLR4) 0.1 ug/mL): 0.892

Cc1cccc(C)c1OCC(=O)NC(Cc1ccccc1)C(O)CC(Cc1ccccc1)NC(=O)C(C(C)C)N1CCCNC1=O (stereo unspecified) (library stock concentration (final ~1000-fold dilution): 10 mM)
IRF Lucia reporter activity (RAW-Dual [3]; [4]): 0.326
IRF Lucia reporter activity (RAW-Dual [3]; agonist: LPS (TLR4) 0.1 ug/mL): 1.52

Cc1cccc(C)c1OCC(=O)NC(Cc1ccccc1)C(O)CC(Cc1ccccc1)NC(=O)C(C(C)C)N1CCCNC1=O (stereo unspecified)
IRF Lucia reporter activity (RAW-Dual [2]; [6]): 0.854

COc1cc2c(cc1NS(=O)(=O)c1ccc(Br)cc1C)n(C)c(=O)n2C (library stock concentration (final ~1000-fold dilution): 10 mM)
IRF Lucia reporter activity (RAW-Dual [3]; [4]): 0.88
IRF Lucia reporter activity (RAW-Dual [3]; agonist: LPS (TLR4) 0.1 ug/mL): 0.909

Cl.NCCCC(N)(C(=O)O)C(F)F.O (stereo unspecified) (library stock concentration (final ~1000-fold dilution): 10 mM water)
IRF Lucia reporter activity (RAW-Dual [3]; [4]): 1.23
IRF Lucia reporter activity (RAW-Dual [3]; agonist: LPS (TLR4) 0.1 ug/mL): 0.959

Cl.NCCCC(N)(C(=O)O)C(F)F.O (stereo unspecified)
IRF Lucia reporter activity (RAW-Dual [2]; [7]): 1.17

CNCCC=C1c2ccccc2CCc2ccccc21.Cl
IRF Lucia reporter activity (RAW-Dual [2]; [5]): 1.38

CNCCC=C1c2ccccc2CCc2ccccc21.Cl (library stock concentration (final ~1000-fold dilution): 10 mM)
IRF Lucia reporter activity (RAW-Dual [1]; [4]): 0.464
IRF Lucia reporter activity (RAW-Dual [1]; agonist: LPS (TLR4) 0.1 ug/mL): 1.52

O=C(O)CCC(=O)O.O=C(OC1CN2CCC1CC2)N1CCc2ccccc2C1c1ccccc1 (stereo unspecified)
IRF Lucia reporter activity (RAW-Dual [2]; [7]): 1.43

O=C(O)CCC(=O)O.O=C(OC1CN2CCC1CC2)N1CCc2ccccc2C1c1ccccc1 (stereo unspecified) (library stock concentration (final ~1000-fold dilution): 10 mM water)
IRF Lucia reporter activity (RAW-Dual [3]; [4]): 0.266
IRF Lucia reporter activity (RAW-Dual [3]; agonist: LPS (TLR4) 0.1 ug/mL): 0.748

COc1ccnc(CS(=O)c2nc3ccc(-n4cccc4)cc3[nH]2)c1C (stereo unspecified) (library stock concentration (final ~1000-fold dilution): 10 mM)
IRF Lucia reporter activity (RAW-Dual [3]; [4]): 0.939
IRF Lucia reporter activity (RAW-Dual [3]; agonist: LPS (TLR4) 0.1 ug/mL): 1.02

COc1ccnc(CS(=O)c2nc3ccc(-n4cccc4)cc3[nH]2)c1C (stereo unspecified)
IRF Lucia reporter activity (RAW-Dual [2]; [6]): 0.977

CCN(CC)CCN(Cc1ccc(-c2ccc(C(F)(F)F)cc2)cc1)C(=O)Cn1c(SCc2ccc(F)cc2)nc(=O)c2c1CCC2
IRF Lucia reporter activity (RAW-Dual [2]; [5]): 0.0449

CCN(CC)CCN(Cc1ccc(-c2ccc(C(F)(F)F)cc2)cc1)C(=O)Cn1c(SCc2ccc(F)cc2)nc(=O)c2c1CCC2 (library stock concentration (final ~1000-fold dilution): 10 mM)
IRF Lucia reporter activity (RAW-Dual [1]; [4]): 0.014
IRF Lucia reporter activity (RAW-Dual [1]; agonist: LPS (TLR4) 0.1 ug/mL): 0.111

O=C(O[C@@H]1Cc2c(O)cc(O)cc2O[C@@H]1c1cc(O)c(O)c(O)c1)c1cc(O)c(O)c(O)c1 (library stock concentration (final ~1000-fold dilution): 10 mM)
IRF Lucia reporter activity (RAW-Dual [3]; [4]): 0.57
IRF Lucia reporter activity (RAW-Dual [3]; agonist: LPS (TLR4) 0.1 ug/mL): 1.06

COC(=O)c1ccc2c(c1)NC(=O)/C2=C(\Nc1ccc(N(C)C(=O)CN2CCN(C)CC2)cc1)c1ccccc1
IRF Lucia reporter activity (RAW-Dual [2]; [6]): 0.289

COC(=O)c1ccc2c(c1)NC(=O)/C2=C(\Nc1ccc(N(C)C(=O)CN2CCN(C)CC2)cc1)c1ccccc1 (library stock concentration (final ~1000-fold dilution): 10 mM)
IRF Lucia reporter activity (RAW-Dual [3]; [4]): 0.278
IRF Lucia reporter activity (RAW-Dual [3]; agonist: LPS (TLR4) 0.1 ug/mL): 0.264

CCOC(=O)Nc1ccc(NCc2ccc(F)cc2)nc1N.O=C(O)/C=C/C(=O)O (library stock concentration (final ~1000-fold dilution): 10 mM)
IRF Lucia reporter activity (RAW-Dual [3]; [4]): 0.729
IRF Lucia reporter activity (RAW-Dual [3]; agonist: LPS (TLR4) 0.1 ug/mL): 0.812

CCOC(=O)Nc1ccc(NCc2ccc(F)cc2)nc1N.O=C(O)/C=C/C(=O)O
IRF Lucia reporter activity (RAW-Dual [2]; [6]): 1.02

CCC(=O)NS(=O)(=O)c1ccc(-c2c(-c3ccccc3)noc2C)cc1 (library stock concentration (final ~1000-fold dilution): 10 mM)
IRF Lucia reporter activity (RAW-Dual [3]; [4]): 1.04 and 1.15
IRF Lucia reporter activity (RAW-Dual [3]; agonist: LPS (TLR4) 0.1 ug/mL): 1.27 and 1.36

CCOc1ccn(-c2ccc(F)cc2)c(=O)c1C(=O)Nc1ccc(Oc2ccnc(N)c2Cl)c(F)c1
IRF Lucia reporter activity (RAW-Dual [2]; [6]): 0.502

CCOc1ccn(-c2ccc(F)cc2)c(=O)c1C(=O)Nc1ccc(Oc2ccnc(N)c2Cl)c(F)c1 (library stock concentration (final ~1000-fold dilution): 10 mM)
IRF Lucia reporter activity (RAW-Dual [3]; [4]): 0.391
IRF Lucia reporter activity (RAW-Dual [3]; agonist: LPS (TLR4) 0.1 ug/mL): 0.349

CCn1cc(-c2ccnc3[nH]c(-c4cccc(CN(C)C)c4)cc23)c(-c2ccc(NC(=O)N(C)C)cc2)n1
IRF Lucia reporter activity (RAW-Dual [2]; [6]): 0.427

CCn1cc(-c2ccnc3[nH]c(-c4cccc(CN(C)C)c4)cc23)c(-c2ccc(NC(=O)N(C)C)cc2)n1 (library stock concentration (final ~1000-fold dilution): 10 mM)
IRF Lucia reporter activity (RAW-Dual [3]; [4]): 0.361
IRF Lucia reporter activity (RAW-Dual [3]; agonist: LPS (TLR4) 0.1 ug/mL): 0.279

COCC(NC(=O)c1cnc(C)s1)C(=O)NC(COC)C(=O)NC(Cc1ccccc1)C(=O)C1(C)CO1 (stereo unspecified)
IRF Lucia reporter activity (RAW-Dual [2]; [6]): 2.33

COCC(NC(=O)c1cnc(C)s1)C(=O)NC(COC)C(=O)NC(Cc1ccccc1)C(=O)C1(C)CO1 (stereo unspecified) (library stock concentration (final ~1000-fold dilution): 10 mM)
IRF Lucia reporter activity (RAW-Dual [3]; [4]): 0.763
IRF Lucia reporter activity (RAW-Dual [3]; agonist: LPS (TLR4) 0.1 ug/mL): 2.17
